# In PubChem BioAssay AID485364 (National Center for Advancing Translational Sciences (NCATS), 2010):
# In all, about 360,000 compounds went through this assay and about 11,000 (3.1%) were called active. The shares of active, inactive and inconclusive entries below differ from those in the screen. The call rests on the fitted dose curve; in most records, active means well fitted inhibition curve with a large enough effect; inconclusive means small, poorly fitted or top-dose-only effect; inactive means no such curve, though single readings can be large or run the other way. No potency is given beside an inconclusive call; the fits are too rough.
# Target: Schistosoma mansoni thioredoxin glutathione reductase (TGR) (UniProt Q962Y6)
# Assay: qHTS Assay for the Inhibitors of Schistosoma Mansoni Peroxiredoxins; further: nearly all actives have a fitted effect of over 60% in size
# Settings: purified TGR, DTNB reduction, TNB absorbance 405 nm; activity change, negative = inhibition: at 114 µM (top of the series) unless noted
# Procedure, shortened: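 Kinetic colorimetric format: TGR-catalysed, NADPH-driven DTNB reduction monitored via TNB absorbance. Enzyme dispensed at 20 nM; compound exposure 15 min at room temperature before reaction start.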
# On the % scale 0 is the no-effect control and ±100 the full control effect; potency means the concentration at half of the fitted maximal effect; tags describe the fitted curve by direction and shape.
SMILES,Potency,"activity change, negative = inhibition"
O=C(CSc1ncccn1)NC(=O)NCc1ccccc1,"inconclusive [inhibitor, single point]",–
Cc1ccnc(NC(=O)CSc2ccc3c(c2)OCCO3)c1,–,inactive: -12.4%
Cc1ccc(N/N=C/c2cccnc2)cc1,"inconclusive [inhibitor, partial curve, poor fit]",–
CC(Oc1cccc(Cl)c1)C(=O)Nc1ccc([N+](=O)[O-])cn1 (stereo not given),–,inactive: -19.8%
COC(=O)/C(C#N)=C/c1ccc(OC(=O)c2ccccn2)cc1,"inconclusive [inhibitor, partial curve]",–
CCOC(=O)c1c(C)oc2cc(Cl)c(O)c(CN(C)C)c12,"inconclusive [inhibitor, single point]",–
Cc1nc2c3cc(Cl)ccc3n(CCN3CCCCC3)c2s1,–,inactive: -12.8%
O=C1CC(N2CCSCC2)C(=O)N1c1ccc(Br)cc1 (stereo not given),"inconclusive [inhibitor, single point]",–
COc1ccc(N2CCN(Cc3cc(=O)oc4cc(-c5ccccc5)c(O)cc34)CC2)cc1,–,inactive: -19.8%
COc1ccc(/C(O)=C2/C(=O)C(=O)N(c3nc(C)c(C)s3)C2c2ccco2)cc1 (stereo not given),"inconclusive [inhibitor, single point]",–
O=C(Nc1cccc(NC(=O)c2ccccc2Cl)c1)c1ccc([N+](=O)[O-])o1,"inconclusive [inhibitor, full curve, poor fit]",–
CN(Cc1ccccc1)C(=O)c1c[nH]c2ccc(S(=O)(=O)Nc3ccccc3F)cc2c1=O,–,inactive: -15.1%
CCOC(=O)c1cc2c(=O)n3ccccc3nc2n(CC2CCCO2)c1=NC(=O)c1ccc(OCC)cc1 (stereo not given),–,inactive: -14.5%
CSc1nc(-c2ccco2)nn1C(=O)c1ccc(Cl)cc1,"inconclusive [inhibitor, partial curve, poor fit]",–
COc1ccccc1CNC(=O)c1ccc(CS(=O)(=O)c2ccccc2OC)o1,"inconclusive [inhibitor, partial curve]",–
CCOc1ccccc1CN1CCNC(=O)C1CC(=O)N(C)CCc1ccccn1 (stereo not given),"inconclusive [inhibitor, partial curve]",–
CN1CCN(Cc2cc(C(C)(C)C)c(O)c(C(C)(C)C)c2)CC1,active: 3.55 µM,–
CCn1c(/C=C/c2ccc([N+](=O)[O-])o2)nc2ccccc2c1=O,"inconclusive [inhibitor, full curve, poor fit]",–
COc1cc(Cl)c(NC(=O)c2cc(S(=O)(=O)N3CCOCC3)cn2C)c(OC)c1,–,inactive: -11.8%
O=C(N/N=C/c1cn(Cc2ccccc2)c2ccccc12)c1ccncc1,–,inactive: -9.46%
O=C(CSc1oc(-c2ccco2)nc1S(=O)(=O)c1ccc(Cl)cc1)NCC1CCCO1 (stereo not given),active: 50.1 µM,–
COc1ccccc1S(=O)(=O)N1CCn2cccc2C1C (stereo not given),"inconclusive [inhibitor, partial curve]",–
COC(=O)c1[nH]c(C)c(/C(O)=C2\C(=O)C(=O)N(CCN3CCOCC3)C2c2ccc(C)o2)c1C (stereo not given),"inconclusive [inhibitor, partial curve]",–
O=C(NC1CCCCC1)C(c1ccc(F)cc1)N(Cc1ccco1)C(=O)c1csnn1 (stereo not given),"inconclusive [inhibitor, partial curve]",–

SMILES,Potency,"activity change, negative = inhibition"
Cc1sc(C2C(C#N)=C(N)N(c3cccc(Cl)c3)C3=C2C(=O)CCC3)cc1CN1CCOCC1 (stereo not given),"inconclusive [inhibitor, partial curve]",–
COC(=O)c1cc(C(=O)OC)cc(N2C(=O)CC(Sc3nc(C)cc(C)n3)C2=O)c1 (stereo not given),"inconclusive [inhibitor, partial curve]",–
COc1ccc(S(=O)(=O)N(C)CC(=O)NCc2ccco2)cc1OC,"inconclusive [inhibitor, partial curve]",–
Cc1cc2c(n1-c1ccc(C(=O)NCC(C)c3ccccc3)cc1)CCCC2 (stereo not given),"inconclusive [inhibitor, full curve]",–
CCN(CC)c1ccc(NC(=O)COc2ccc(C#N)cc2)cc1S(=O)(=O)Nc1ccc(OC)cc1,–,inactive: -5.97%
O=C(CSc1nnc(CNC(=O)c2ccccc2)o1)Nc1nccs1,–,inactive: -2.76%
CCOC(=O)N1CCC(N2C(=O)c3ccccc3C2Nc2cc(C)cc(C)c2)CC1 (stereo not given),–,inactive: 3.44%
O=C(NCc1cccc(Cl)c1)c1ccc(CS(=O)Cc2ccccc2Cl)o1 (stereo not given),"inconclusive [inhibitor, partial curve]",–
CCC(C)(C(=O)NC1CCCC1)N(Cc1ccco1)C(=O)c1ccccn1 (stereo not given),"inconclusive [inhibitor, full curve, poor fit]",–
CCOC(=O)N(C)OC(=O)Nc1ccc(Cl)c(Cl)c1,"inconclusive [inhibitor, partial curve]",–
COc1ccc(OC)c(NC(=O)c2c(NC(=O)CCC(=O)O)sc3c2CCCCC3)c1,–,inactive: 1.49%
CC(C)CNC(=S)NNC(=O)c1nn(C)cc1Cl,"inconclusive [inhibitor, partial curve]",–
CCOC(=O)CN(C)C(=O)CCc1nnc(-c2ccc(-c3ccccc3)cc2)o1,"inconclusive [inhibitor, full curve, poor fit]",–
O=C(NCc1ccccc1F)C(=O)NCC(c1cccs1)S(=O)(=O)c1cccs1 (stereo not given),"inconclusive [inhibitor, partial curve]",–
Cc1cc(C)cc(C(=O)Nc2ccc(N3CCCC3)cc2)c1,"inconclusive [inhibitor, partial curve]",–
COc1ccc(C(C)=O)cc1COC(=O)CNC(=O)c1ccc(F)cc1,"inconclusive [inhibitor, partial curve, poor fit]",–
O=C(CSc1ccc(-c2ccco2)nn1)NC1CCCC1,active: 17.8 µM,–
O=C1CCCN1CC1CCCN(Cc2nc(COc3ccccc3)no2)C1 (stereo not given),–,inactive: 1.99%
CCC(C)(C(=O)NC1CCCCC1)N(Cc1ccco1)C(=O)CC1NC(=O)NC1=O (stereo not given),"inconclusive [inhibitor, partial curve]",–
O=C(OCC(=O)N1CCN(C(=O)c2ccco2)CC1)c1ccccc1OCc1ccccc1,"inconclusive [inhibitor, single point]",–
CCOc1cccc(CN2CCN(CCc3ccccc3)C(CCO)C2)c1O (stereo not given),"inconclusive [inhibitor, partial curve]",–
COc1ccc(/C=C2\CN(Cc3ccccc3)C/C(=C\c3ccc(OC)c(O)c3)C2=O)cc1O,active: 44.7 µM,–
Cc1cc(C2=CC(C)(c3cc(C)oc3C)Nc3nc(C(F)(F)F)nn32)c(C)o1 (stereo not given),active: 10 µM,–
Cc1cc(C)cc(NC(=O)CSc2nccn2Cc2ccco2)c1,–,inactive: 2.44%

SMILES,Potency,"activity change, negative = inhibition"
O=C(O)c1ccc2c(=O)n3c(nc2c1)/C(=C/c1ccc(Cl)c([N+](=O)[O-])c1)CC3,"inconclusive [inhibitor, partial curve]",–
O=C(Nc1ccc(NC(=S)NC(=O)c2ccco2)cc1)c1ccccc1,–,inactive: -32.2%
COc1ccc(-c2nc(CS(=O)CC(=O)N3CCN(C)CC3)c(C)o2)cc1OC (stereo not given),"inconclusive [inhibitor, partial curve, poor fit]",–
c1ccc2sc(Nc3nc4cc5c(cc4s3)OCO5)nc2c1,"inconclusive [inhibitor, partial curve]",–
CCCCCCCN(C(=O)CCl)c1ccccc1C,"inconclusive [inhibitor, partial curve]",–
CCOC(=O)c1c(NC(=O)CCl)sc(C(=O)N(CC)CC)c1C,active: 35.5 µM,–
CC(=O)c1ccc(NC(=O)Nc2sc(NS(=O)(=O)c3ccccc3)nc2C)cc1,active: 35.5 µM,–
O=C(NCc1ccco1)c1cnn2c(C(F)(F)F)cc(-c3ccco3)nc12,active: 50.1 µM,–
CC(=O)c1ccc(OCc2cc(C(=O)N3CCC[C@H]3CO)no2)cc1,active: 50.1 µM,–
Cc1cc(O)ccc1Nc1nc2ccccc2nc1Nc1ccc(O)cc1C,"inconclusive [inhibitor, single point]",–
O=C1CCCN1CCCNC(=S)Nc1ccccc1Cl,"inconclusive [inhibitor, partial curve]",–
O=C1C(=O)N(CCCN2CCOCC2)C(c2ccc(Cl)cc2)/C1=C(\O)c1ccc2c(c1)OCCO2 (stereo not given),"inconclusive [inhibitor, full curve]",–
COc1ccc2oc(C)c(C(N)=O)c2c1,–,inactive: 6.61%
CCOC(=O)c1csc(NC(=O)C2=COCCO2)n1,–,inactive: -4.37%
O=C(CCCc1ccccc1)NCCS(=O)(=O)N1CCN(c2ccc(F)cc2)CC1,"inconclusive [inhibitor, partial curve]",–
CC(Sc1nnc(-c2ccccc2F)n1C1CC1)C(=O)NCc1ccco1 (stereo not given),"inconclusive [inhibitor, partial curve]",–
COc1ccc(C)cc1NC(=O)c1ccc2c(c1)N(Cc1cccc(Cl)c1)C(=O)c1ccccc1S2=O (stereo not given),–,inactive: -12.2%
Cc1ccc(S(=O)(=O)NC(C)(C)CN2CCNCC2)cc1,"inconclusive [inhibitor, single point]",–
O=C1OCC2=C1C(c1ccc(F)cc1)c1cc3c(cc1N2)OCO3 (stereo not given),–,inactive: -0.825%
CCC(C(=O)NC1CCCC1)N(C(=O)Cn1nnc(-c2ccc(C)o2)n1)c1cccc(O)c1 (stereo not given),"inconclusive [inhibitor, partial curve, poor fit]",–
Cc1cc(NC(=O)Cc2cccs2)nn1CC(=O)NCc1ccco1,"inconclusive [inhibitor, partial curve]",–
Cc1nn(Cc2ccc(C(=O)Nc3ccc(C(=O)OC(C)C)cc3)o2)c(C)c1Cl,"inconclusive [inhibitor, partial curve]",–
